# In PubChem BioAssay AID686979 (National Center for Advancing Translational Sciences (NCATS), 2013):
# Several values for one entry are separate records, joined by “and”; a condition that tells them apart may be missing. Equal values may be shown once. In all, about 420,000 compounds went through this assay and about 50,000 (12%) were called active. The shares of active, inactive and inconclusive entries below differ from those in the screen. The call rests on the fitted dose curve; in most records, active means well fitted inhibition curve with a large enough effect; inconclusive means small, poorly fitted or top-dose-only effect; inactive means flat fitted curve, though single readings scatter. Where the call is inconclusive, the potency comes from a doubtful curve fit.
# Experiment: qHTS for Inhibitors of human tyrosyl-DNA phosphodiesterase 1 (TDP1): qHTS in cells in presence of CPT; further: nearly all actives have a fitted effect of over 55% in size
# Settings: chicken DT40 Tdp1-/-;hTDP1 cells + 20 nM CPT, ATP luminescence, 48 h; activity change, negative = growth inhibition: at 46.2 µM (top of the series) unless noted
# Procedure, shortened: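 Cell growth measured by CellTiter-Glo luminescence after a minimum 48 h, 37 C compound exposure with 20 nM CPT in Tdp1-knockout DT40 cells stably expressing hTDP1, seeded 400/well; qHTS titration format.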
# On the % scale 0 is the no-effect control and ±100 the full control effect; potency means the concentration at half of the fitted maximal effect; tags describe the fitted curve by direction and shape.
Structure (SMILES),Potency,"activity change, negative = growth inhibition"
Cc1ccc(Cn2c(C(=O)O)c(CNCCc3cccs3)c3ccc(C)cc32)cc1,"inconclusive: 29.1 µM [inhibitor, single point]",–
CN1C(=O)S/C(=C/c2cccnc2)C1=O,"inconclusive: 1.46 µM [inhibitor, full curve]",–
CCOC(=O)N1CCN(Cc2nc3ccc([N+](=O)[O-])cc3c(=O)n2-c2ccc(OC)cc2OC)CC1,"inconclusive: 29.1 µM [inhibitor, single point]",–
O=C(COc1ccc(Cl)cc1)Nc1ccc(O)c(-c2nc3ccccc3s2)c1,"inconclusive: 29.1 µM [inhibitor, single point]",–
COc1ccc(/C(N)=N/OC(=O)c2ccc(OC)c([N+](=O)[O-])c2)cc1OC,"inconclusive: 18.4 µM [inhibitor, single point]",–
COc1ccc(NC(=S)NC2CCCC2)c(OC)c1,–,inactive: 4.46%
OCCNCCOc1ccc(Cl)c(Cl)c1,"inconclusive: 10.3 µM [inhibitor, partial curve]",–
COc1cc(NC(=O)CN2C(=O)COc3ccc(S(=O)(=O)N4CCCC4)cc32)cc(OC)c1,"inconclusive: 29.1 µM [inhibitor, single point]",–
CC(=O)Nc1ccccc1OCC(=O)c1cc(C)n(Cc2cccs2)c1C,active: 1.84 µM,–
CC(C)C1C(=O)N(Cc2cn(CCC3OCCCO3)nn2)CCS(=O)(=O)N1Cc1ccc(-c2ccc(Cl)nc2)cc1 (centres undefined),"inconclusive: 16.4 µM [inhibitor, single point]",–
O=C(COc1nc2ccccc2nc1N1CCOCC1)Nc1ccc(S(=O)(=O)N2CCCC2)cc1,"inconclusive: 29.1 µM [inhibitor, single point]",–
CCOC(=O)C1(Cc2cccc(OC)c2)CCN(Cc2ccc(OC)c(OC)c2)CC1,"inconclusive: 20.6 µM [inhibitor, single point]",–
Clc1ccc2c(N/N=C/c3cccc(Br)c3)ccnc2c1,active: 16.4 µM,–
COc1ccc(S(=O)(=O)NC(C)C(=O)NCc2cccnc2)cc1C (centres undefined),"inconclusive: 6.51 µM [inhibitor, single point]",–
CCOc1ccc(NC(=O)CN2C(=O)NC(C)(c3ccc(OC(F)F)cc3)C2=O)cc1 (centres undefined),active: 18.4 µM,–
CCCCNC(=O)C1C(c2ccc(C(F)(F)F)cc2)=Nc2ccccc2N1C(=O)c1cccc(C(F)(F)F)c1 (centres undefined),"inconclusive: 29.1 µM [inhibitor, single point]",–
CC[C@@]1(c2cccc(C)c2)C(=O)N(C(=O)OC)N1C(=O)OC,active: 18.4 µM,–
CN(C)/C=N/C(=S)Nc1ccc(Cl)c(Cl)c1,"inconclusive: 29.1 µM [inhibitor, single point]",–
Cc1cccc(NC(=S)NNC(=O)c2csc3c2CCC(C)C3)c1 (centres undefined),"inconclusive: 29.1 µM [inhibitor, single point]",–
CC(C)C[C@H]1CNC(=S)N1CC1CCN(CC2CCCC2)CC1,–,inactive: -27.9%
Cc1ccc(S(=O)(=O)N2CCOCC2)cc1NC(=O)c1cccc(S(=O)(=O)N2CCCC2)c1,"inconclusive: 25.9 µM [inhibitor, single point]",–
Cc1ccc(NC(=S)N(Cc2cccs2)Cc2cc3cc(C)ccc3[nH]c2=O)cc1,"inconclusive: 29.1 µM [inhibitor, single point]",–
Cc1cc(Br)ccc1NC(=O)COc1cc(=O)n(C)c2ccccc12,"inconclusive: 13 µM [inhibitor, partial curve]",–

Structure (SMILES),Potency,"activity change, negative = growth inhibition"
COc1cccc(CNc2ccc([N+](=O)[O-])cc2C)c1,"inconclusive: 32.6 µM [inhibitor, single point]",–
CCCCN(C(=O)CCC(=O)Nc1cc(C)on1)C(C(=O)NC(C)(C)CC)c1cccc(OC)c1OC (centres undefined),"inconclusive: 16.4 µM [inhibitor, single point]",–
COc1cccc(CNC(=O)CSc2nc3ccccc3nc2Cc2ccccc2)c1,"inconclusive: 23.1 µM [inhibitor, single point]",–
Cc1ccccc1NC(=O)c1c(C)oc2ccc(O)c(CN3CCCC(C)C3)c12 (centres undefined),active: 10.3 µM,–
CC(=O)C[C@H]1c2ccccc2S(=O)(=O)N1C1CCCC1,"inactive and inconclusive: 10 µM [inhibitor, partial curve]",–
CCc1nc(N)nc(N)c1-c1ccc(Cl)c(N=[N+]=[N-])c1,active: 1.64 µM and active: 5.17 µM,–
O=C(c1cc(Cl)ccc1Cl)N1CCN(Cc2ccccc2)CC1,"inconclusive: 18.4 µM [inhibitor, single point]",–
COc1ccccc1N(C)S(=O)(=O)c1ccc(Cl)c(C(=O)NCC2(N(C)C)CCCCC2)c1,"inconclusive: 23.1 µM [inhibitor, single point]",–
O=c1c2sc3ccccc3c2n(Cc2ccccc2F)c(=O)n1-c1ccccc1Cl,active: 20.6 µM,–
CCOC(=O)c1c(C)[nH]c(C(=O)NNC(=O)c2ccccc2)c1C,–,inactive: -10.8%
S=C(Nc1ccccc1)N1CCc2ccccc21,–,inactive: 3.65%
COc1ccccc1NC(=S)N(Cc1ccco1)Cc1cc2cc(C)ccc2[nH]c1=O,active: 9.2 µM,–
CCOC(=O)c1ccc(NC(=O)c2nc[nH]c2C(=O)N2CCN(c3ccccc3)CC2)cc1,"inconclusive: 16.4 µM [inhibitor, partial curve]",–
CC1Cc2cc(/C=C3/SC(=S)N(C)C3=O)ccc2O1 (centres undefined),–,inactive: -27.1%
COc1ccc(Cl)cc1Cn1c(C)c(C(=O)NCc2ccc(F)cc2)sc1=O,"inconclusive: 25.9 µM [inhibitor, single point]",–
O=C(NCC1CC1)c1cc2c(c(-c3cccc(-c4ccccc4F)c3)n1)[C@@H](CCO)N(C(=O)CC1CC1)C2,active: 20.6 µM,–
CCN(CC)S(=O)(=O)c1ccc2nc(NC(=O)c3ccccc3OC)sc2c1,"inconclusive: 7.31 µM [inhibitor, partial curve]",–
O=C(CN1C(=O)C2CC=CCC2C1=O)Nc1ccc(F)cc1F (centres undefined),–,inactive: 2.96%
Cc1c(Cl)cccc1N1CC(C)(C)C1=O,–,inactive: 2.3%
Cc1cccc(NC(=O)COC(=O)c2ccccc2OCc2cccc(Br)c2)c1,active: 17.8 µM,–
COc1cccc(N(C(=O)c2snc(C(N)=O)c2N)C(C(=O)NCc2ccccc2)c2ccc(O)cc2)c1 (centres undefined),"inconclusive: 25.9 µM [inhibitor, single point]",–
CC(C)NS(=O)(=O)c1cc(C(F)(F)F)ccc1/C=C/C(=O)O,"inconclusive: 25.1 µM [inhibitor, single point]",–
O=C(CCN1C(=O)C2C3CC(C(Br)C3Br)C2C1=O)OCC(=O)c1ccccc1 (centres undefined),"inconclusive: 9.2 µM [inhibitor, partial curve, poor fit]",–

Structure (SMILES),Potency,"activity change, negative = growth inhibition"
Cc1ccc(S(=O)(=O)N2CCCCC2)cc1NC(=O)COC(=O)C1=COCCO1,–,inactive: -3.65%
O=C(N/N=C/c1cccc([N+](=O)[O-])c1)c1cnccn1,–,inactive: -0.961%
Cc1ccc2c(c1)cc(C(=O)NCc1ccc(F)cc1)n2C,"inconclusive: 11.6 µM [inhibitor, partial curve]",–
COc1ccc(/C=C2/N=C3CCCCCN3C2=O)cc1OC,"inconclusive: 16.4 µM [inhibitor, single point]",–
CN(CC(=O)Nc1ccc(S(=O)(=O)N2CCCC2)cc1)Cc1c(F)cccc1Cl,active: 14.6 µM,–
CN1CCN(C(=O)C2=C[C@@H](c3ccc4c(c3)OCO4)C[C@@H](OCc3ccc(CO)cc3)O2)CC1,–,inactive: 4.92%
O=C1C=C(O)c2ccccc2C1=O,"inconclusive: 23.1 µM [inhibitor, single point]",–
Cc1ccc2[nH]c(=O)c(-c3nc4c(C)cccn4c3NCc3ccco3)cc2c1,"inconclusive: 13 µM [inhibitor, partial curve]",–
NC(=NCCc1c[nH]c2ccccc12)NC(=O)c1ccc(F)cc1,–,inactive: 0.365%
CCOCC(=O)Nc1ccc(-c2cn3c(C)csc3n2)cc1,–,inactive: -15.2%
OCCC1CN(Cc2cccc(C(F)(F)F)c2)CCN1Cc1ccccc1 (centres undefined),"inconclusive: 29.1 µM [inhibitor, single point]",–
COc1ccccc1N1CCN(S(=O)(=O)c2cc(-c3cc(C)no3)ccc2C(C)C)CC1,"inconclusive: 29.1 µM [inhibitor, single point]",–
Cc1nonc1C1CCCN1C(=O)c1cc(COc2ccc(F)cc2Cl)on1 (centres undefined),"inconclusive: 25.9 µM [inhibitor, single point]",–
COc1ccc2c(c1)C=C/C2=C\c1ccc(N(C)C)cc1,–,inactive: -70.3%
Cc1cnc(NC(=O)c2cc(S(=O)(=O)N(C)C)ccc2N2CCCC2)s1,–,inconclusive: -30.2% [inhibitor]
CNC(=O)C1CCC(Cn2c(=O)c3sccc3n(CC(=O)N3CCCC3)c2=O)CC1 (centres undefined),–,inactive: -13.4%
COc1cccc(CNc2ncnc3c2nnn3C)c1,"inconclusive: 20.6 µM [inhibitor, single point]",–
COc1cccc(OCCNc2cc(Cl)ccc2[N+](=O)[O-])c1,"inconclusive: 29.1 µM [inhibitor, single point]",–
Cc1ccc(CCc2nnc(SCC(=O)Nc3cccc(Cl)c3)n2-c2ccccc2)o1,"inconclusive: 23.1 µM [inhibitor, partial curve]",–
Cc1cccc(N(CC(=O)Nc2ccccc2-c2ccccc2)S(=O)(=O)c2ccccc2)c1C,"inconclusive: 23.1 µM [inhibitor, single point]",–
Nc1nc(NCC2CCCO2)nc(Nc2ccc(Cl)cc2)c1[N+](=O)[O-] (centres undefined),–,inactive: -1.73%
Nc1nc[nH]c(=O)c1N,–,inactive: -0.247%
Cc1cccc(C(=O)NCCC(=O)Nc2ccc(F)c([N+](=O)[O-])c2)c1,"inconclusive: 14.6 µM [inhibitor, single point]",–
